The campaign covered roughly 110,000 compounds. About 40 (0.04%) were called active. The inconclusive results got no clear call from the source; some entries with a clear call stand among them for comparison. Calls come from the whole dose curve; as a rule, active = well fitted curve in the direction sought with a large enough effect in the signal ratio (not every such curve was filed as active); inconclusive = small, poorly fitted or top-dose-only effect, or a change in a side signal; inactive = flat fitted curve, though single readings scatter; the % refers to the signal ratio. Potencies of inconclusive entries are doubtful fits and often do not repeat.
Assay: IkB Signaling;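 for IkBa stabilization activation: 0% = basal untreated cells and 100% = reference inhibitor full response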
Conditions: ABC-DLBCL IkBa-CBG/CBR dual luciferase ratio (green luciferase fused to IkBa over red control in OCI-Ly3 lymphoma cells), 4 h; IkBa stabilization activation: at 57.1 µM (top of the series), scaled: untreated 0%, proteasome inhibitor 100% unless noted
Outline: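 Luminescence ratio of IκBα-fused green versus native red beetle luciferase in OCI-Ly3 cells, 4 h post-doxycycline with compound; red signal alone, scaled from basal (0%) to zero light (-100%), flagged nonspecific or cytotoxic effects.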
With `CC(C)COC(=O)N(C)c1ccc(C(O)(C(F)(F)F)C(F)(F)F)cc1` the IkBa stabilization activation was inconclusive: 13.6% [signal inhibitor].
In the case of `Cc1ccc(OCC(=O)Nc2nnc(SCc3cc(=O)c4ccccc4[nH]3)s2)cc1`, the IkBa stabilization activation is reported as inconclusive: 0.339% [signal inhibitor].
In the case of `Cc1ccc(CNC(=O)c2ccc(Cn3nc(C)c(Cl)c3C)o2)cc1`, the IkBa stabilization activation is reported as inconclusive: 6.16% [signal inhibitor].
In the case of `CCOc1ccccc1C(=O)Nc1ccc2nc(N(CC)CC)cc(C)c2c1`, the IkBa stabilization activation is reported as inconclusive: -0.149% [signal inhibitor].
For `CC(CCc1ccccc1)NC(=O)C1CCCN(C(=O)c2cc3sccc3n2C)C1` (stereo not drawn), the IkBa stabilization activation was inconclusive: 4.14% [signal inhibitor].
For `CCOc1ccc(CNS(=O)(=O)c2cc3c(cc2C)NC(=O)CO3)cc1OC`, the IkBa stabilization activation was “inactive”.
For `Cc1cc(N2CCCCC2)nc2ccc(NC(=O)c3cccc(Cl)c3)cc12`, the IkBa stabilization activation was inconclusive: -0.87% [signal inhibitor].
With `CCOC(=O)C1CCN(c2ncnc3c2oc2ccccc23)CC1` the IkBa stabilization activation was inconclusive: 4.29% [signal inhibitor].
With `Cc1cc2n(n1)C(c1cc(C(C)(C)C)c(O)cc1O)Nc1ccccc1-2` (stereo not drawn) the IkBa stabilization activation was inconclusive: -9.23% [signal inhibitor].
In the case of `CSc1cccc(NC(=O)CN2C(=O)COc3ccc(Cl)cc32)c1`, the IkBa stabilization activation is reported as inconclusive: 10.8% [signal inhibitor].
With `Cc1ccc(-c2nc3sc(CCNC(=O)c4ccc(Br)o4)c(C)n3n2)cc1` the IkBa stabilization activation was inconclusive: 6.48% [signal inhibitor].
For `COc1ccc(NC(=O)COc2ccc(-c3nn(C)c(=O)c4ccccc34)cc2)cc1`, the IkBa stabilization activation was “inactive”.
For `COc1ccccc1-c1nnc(SCC(=O)c2ccc(Cl)cc2)n1-c1ccccc1`, the IkBa stabilization activation was inconclusive: 15.7% [signal inhibitor].
In the case of `Cc1c(C)c2ccc(OCc3ccc(C(=O)O)o3)c(C)c2oc1=O`, the Potency is reported as inconclusive: 25.1 µM [signal inhibitor, partial curve].
In the case of `CCOc1ccc(NC(=O)CSc2nc3c(oc4ccccc43)c(=O)n2-c2ccccc2C)cc1`, the IkBa stabilization activation is reported as inconclusive: 0.591% [signal inhibitor].
With `Cc1cc(=O)n2nc(N3CCCC(C(=O)NCCCN4CCc5ccccc5C4)C3)sc2n1` (stereo not drawn) the IkBa stabilization activation was “inactive”.
For `COC(=O)c1ccc2c(=O)[nH]c(CN3c4ccccc4CC3C)nc2c1` (stereo not drawn), the IkBa stabilization activation was inconclusive: 2.34% [signal inhibitor].
In the case of `COc1ccc(N(C)C(=O)c2cn(C3CCCCC3)c(=O)c3c2c2ccccc2n3C)cc1`, the IkBa stabilization activation is reported as inconclusive: 11.7% [signal inhibitor].
In the case of `O=C(NCCc1csc2nc(-c3ccccc3F)nn12)c1ccco1`, the IkBa stabilization activation is reported as inconclusive: 1.61% [signal inhibitor].
In the case of `CN1C(C(=O)c2ccccc2)=C(OC(=O)c2ccc(Br)cc2)c2ccccc2S1(=O)=O`, the IkBa stabilization activation is reported as inconclusive: -1.52% [signal inhibitor].
For `N#CCc1ccccc1[N+](=O)[O-]`, the IkBa stabilization activation was “inactive”.
With `COc1ccccc1NC(=O)c1c(NCc2ccc(OC)c(OC)c2OC)sc2c1CCCC2` the IkBa stabilization activation was inconclusive: 3.77% [signal inhibitor].
In the case of `CCOC(=O)c1ccc(Nc2nc3ccccc3nc2NS(=O)(=O)c2ccc(Cl)cc2)cc1`, the Potency is reported as inconclusive: 2.51 µM [signal inhibitor, full curve].
With `Cc1ccc(-c2c(CN3CCN(c4cccc(C(F)(F)F)c4)CC3)csc2C)cc1` the IkBa stabilization activation was inconclusive: -1.44% [signal inhibitor].
In the case of `Cc1nc2c(C(=O)NCc3ccccc3)c[nH]n2c(=O)c1Cc1ccccc1Cl`, the IkBa stabilization activation is reported as inconclusive: 0.837% [signal inhibitor].
For `Cc1sc2ncn(CC(=O)N(C)c3ccc(Br)cc3)c(=O)c2c1S(=O)(=O)N1CCC(C)CC1`, the IkBa stabilization activation was inconclusive: -0.111% [signal inhibitor].
For `COc1cccc(NC(=O)Nc2cccc(-c3cn4cccnc4n3)c2)c1`, the IkBa stabilization activation was inconclusive: 6.52% [signal inhibitor].
With `COc1ccc(NC(=O)c2noc3c2CCCC3)cc1Cl` the IkBa stabilization activation was inconclusive: 5.29% [signal inhibitor].
For `CCOc1ccc(-c2nnc(Nc3ccc(S(N)(=O)=O)cc3)c3ccccc23)cc1`, the IkBa stabilization activation was inconclusive: 10.9% [signal activator].
In the case of `CC(C)(C)c1ccc(OCC(=O)N2CCC(c3nc4ccccc4s3)CC2)cc1`, the IkBa stabilization activation is reported as inconclusive: 1.53% [signal inhibitor].
In the case of `CCCOC1(C(F)(F)F)NC(=O)N(c2ccc(Cl)cc2)C1=O` (stereo not drawn), the IkBa stabilization activation is reported as “inactive”.
In the case of `Cc1nc2cccnc2n1-c1cccc(C(=O)N2CCN(c3ccc(Cl)cc3)CC2)c1`, the IkBa stabilization activation is reported as inconclusive: 2.66% [signal inhibitor].
For `CCOC(=O)c1c(C)nc2c3ccccc3ccn12`, the IkBa stabilization activation was “inactive”.
For `COc1cc(CN2CCN(c3cccc(C)c3C)CC2)cc(Br)c1O`, the IkBa stabilization activation was inconclusive: 3.86% [signal inhibitor].
With `CCN(CCCNC(=O)Cn1ncc2c([nH]c3ccc(C)cc32)c1=O)c1cccc(C)c1` the IkBa stabilization activation was inconclusive: 2.18% [signal inhibitor].
For `CCC(CC)c1nnc(NS(=O)(=O)Cc2ccccc2)s1`, the Potency was inconclusive: 12.6 µM [signal inhibitor, partial curve].
For `CC1CCCCN1C(=O)CSCC(=O)Nc1nc(-c2cccs2)cs1` (stereo not drawn), the IkBa stabilization activation was inconclusive: 3.12% [signal inhibitor].
With `COc1ccc(C2CC(=O)Nc3c2c(C)nn3-c2nncc(-c3ccc(C)cc3)n2)c(OC)c1OC` (stereo not drawn) the IkBa stabilization activation was “inactive”.
In the case of `Cc1cccc(CCNC(=O)c2sc3nc4n(c(=O)c3c2C)CCCC4)c1`, the IkBa stabilization activation is reported as inconclusive: 1.42% [signal inhibitor].
For `Cc1ccc(C)c(CN2C(=O)C(=O)c3ccccc32)c1`, the IkBa stabilization activation was “inactive”.
For `Cc1ccc(S(=O)(=O)c2nc(-c3ccccc3)oc2NCc2cccnc2)cc1`, the IkBa stabilization activation was inconclusive: 5.42% [signal inhibitor].
For `O=C1CSC2(C(=O)N(Cc3ccccc3F)c3ccccc32)N1c1ccc(F)cc1` (stereo not drawn), the IkBa stabilization activation was inconclusive: 2.36% [signal inhibitor].
In the case of `CCCC(=O)c1cc(F)c(N2CCOCC2)cc1C`, the IkBa stabilization activation is reported as inconclusive: -2.78% [signal activator].
With `O=C(NCCc1ccccc1)c1ccc(CS(=O)(=O)c2ccc(Br)cc2)o1` the IkBa stabilization activation was inconclusive: 2.52% [signal inhibitor].
For `Cc1cc2nn(-c3ccccc3)nc2cc1NC(=O)c1cccc2c(Cl)cccc12`, the IkBa stabilization activation was “inactive”.
With `COc1ccc(-n2ccnc2SCC(=O)Nc2ccc(F)cc2F)cc1` the IkBa stabilization activation was “inactive”.
In the case of `COc1ccc(CCC(=O)N2CCc3c([nH]c4ccccc34)C2c2ccc(F)cc2)cc1` (stereo not drawn), the IkBa stabilization activation is reported as inconclusive: 0.279% [signal inhibitor].
With `CCSc1nnc2n(-c3cccc(C)c3)c(=O)c3c4c(sc3n12)CCCC4` the IkBa stabilization activation was inconclusive: 12.8% [signal inhibitor].
In the case of `O=C(NCCc1ccc2c(c1)OCCO2)c1cc2ccccc2o1`, the IkBa stabilization activation is reported as inconclusive: 4.05% [signal inhibitor].
With `COc1cccc(Cn2c(=O)c(-c3ccc(Cl)cc3)nc3cnc(N4CCNCC4)nc32)c1` the IkBa stabilization activation was inactive: -5.82% [at 11.4 µM, scaled: untreated 0%, proteasome inhibitor 100%].
For `COc1ccc2c(c1)c1nnc(SCC(=O)N3C(C)CCCC3C)nc1n2C` (stereo not drawn), the IkBa stabilization activation was “inactive”.
With `CCOC(=O)C1CCN(c2c(NCc3ccc(C(=O)O)cc3)c(=O)c2=O)CC1` the IkBa stabilization activation was “inactive”.
For `c1ccc2c(c1)-c1nc3ccccc3cc1[C@H]2N1CCOCC1`, the IkBa stabilization activation was inactive: -0.527% [at 11.4 µM, scaled: untreated 0%, proteasome inhibitor 100%].
With `Clc1ccc(-n2nnnc2Sc2ncnc3sccc23)cc1` the IkBa stabilization activation was inconclusive: -3.62% [signal inhibitor].
In the case of `CN(C)CCN(Cc1ccco1)C(=O)c1oc2ccccc2c1NC(=O)c1ccccc1`, the IkBa stabilization activation is reported as inconclusive: -0.713% [signal inhibitor].
In the case of `Cc1ccc(OCC(=O)N(Cc2ccco2)Cc2ccc(C)o2)cc1`, the IkBa stabilization activation is reported as inconclusive: -0.109% [signal inhibitor].
In the case of `Cc1ccc2cc(C#N)c(NCc3ccco3)nc2c1`, the Potency is reported as inconclusive: 25.1 µM [rising, partial curve].
In the case of `CCc1ccccc1N(CC)C(=O)CCc1nc(-c2ccc(C)cc2)no1`, the IkBa stabilization activation is reported as inconclusive: 3.22% [signal inhibitor].
In the case of `Cc1ccc(C(=O)C2CCN(CC(=O)NC3CCCCC3)CC2)cc1`, the IkBa stabilization activation is reported as inconclusive: 3.59% [signal inhibitor].
For `COc1ccc(NC(=O)c2cc(-c3ccc(OC)c(OC)c3)on2)cc1OC`, the Potency was inconclusive: 20 µM [signal inhibitor, partial curve].
With `NCCCCCCCCCCNS(=O)(=O)c1cccc2c(Cl)cccc12` the IkBa stabilization activation was inconclusive: 0.548% [signal inhibitor].
With `Cc1cc(S(=O)(=O)Nc2ccc(-c3ccc(N4CCCCCC4)nn3)cc2)c(C)cc1Cl` the IkBa stabilization activation was inconclusive: 2.01% [signal inhibitor].
With `CCc1sc(Nc2cccc(C)c2C)nc1-c1cc2cccc(OC)c2oc1=O` the IkBa stabilization activation was inconclusive: 1.49% [signal inhibitor].
For `Cc1ccc2c(=O)c(C(=O)c3cccc(Cl)c3)cn(CC(=O)Nc3ccc4c(c3)OCCO4)c2n1`, the IkBa stabilization activation was inconclusive: 2.12% [signal inhibitor].
For `COc1ccc(-n2nnnc2S(=O)(=O)CC(=O)N2CCCCC2)cc1`, the Potency was inconclusive: 6.31 µM [signal inhibitor, full curve, poor fit].
With `CC(C)OC(=O)CSc1ncnc2c1cnn2-c1ccccc1` the IkBa stabilization activation was inconclusive: 1.21% [signal inhibitor].
In the case of `COc1ccc(CCCc2nnc(SCC(=O)Nc3ccc(OC)cc3)o2)cc1`, the IkBa stabilization activation is reported as inconclusive: 5.15% [signal inhibitor].
For `C[C@@H]1c2cccc(O)c2C(O)=C2C(=O)[C@@]3(O)C(O)=C(C(N)=O)C(=O)[C@@H](N(C)C)[C@@H]3[C@@H](O)[C@@H]21`, the IkBa stabilization activation was “inactive”.

From PubChem BioAssay AID445 (National Center for Advancing Translational Sciences (NCATS), 2006)
Potency is the fitted concentration of half-maximal effect.
